The record followed here is PubChem BioAssay AID463173 (ICCB-Longwood Screening Facility, Harvard Medical School, 2010).

Out of some 52,000 compounds screened, about 4,300 (8.3%) were called active. Rule as the data show it: active = survival mostly below about 52% (no sharp cut-off); inactive = mostly above about 56%. Some of the results follow.

The subject of the assay is DeltatarO mutant. In words: growth inhibition of S. aureus wild type versus tarO mutant, primary screen, teichoic acid synthesis inhibitors, RN4220, OD600 (AID 463173). As to conditions: OD600, 18 h, active compounds read low, screened at 18.75 µg/mL (by protocol).
On to `COc1cccc(/C=C/c2nc3ccccc3c(=O)n2-c2ccc(C)c(C)c2)c1OC`, for which the survival is inactive: 94%. In the case of `COc1ccc(Cl)cc1S(=O)(=O)N1CCC(c2ccncc2)CC1` it was inactive: 126%; in that of `Cc1cccc(OCC(=O)NCc2ccc3c(c2)CCN3C(=O)c2ccc(Cl)cc2)c1`, inactive: 87%.

Consider `O=C(c1cccn1-c1nnc(N2CCCC2)s1)N1CCN(c2ccc(F)cc2)CC1`, for which the survival is inactive: 118%.

For `CCOc1ccc(NC(=O)c2c(NC(=O)c3ccncc3)sc3c2CCC(C(C)(C)C)C3)cc1` (stereo not drawn), the survival was inactive: 113%. Take `O=C(c1ccc(F)cc1)N1CCN(CCc2ccncc2)CC1`: the survival was inactive: 84%.

Take `Cc1ccccc1Nc1c(-c2ccc(O)cc2)nc2c(C)cccn12`: the survival is inactive: 72%.

Regarding `COc1cccc(CNC(=O)CSc2nnc(C)c3c(C)n(-c4ccccc4)nc23)c1`, the survival is inactive: 77%. For `COc1ccc(NC(=O)CCS(=O)(=O)c2cc3c4c(c2)CCN4C(=O)CC3)cc1OC`, the survival is inactive: 94%. In the case of `CCC(C(=O)Nc1ccc(F)cc1F)n1nc(-c2ccccc2)c2c(c1=O)CCCC2` (stereo not drawn) it was active: 38%. As to `O=C(NCc1ccco1)C(C(=O)c1ccccc1)n1ccccc1=O` (stereo not drawn), the survival was inactive: 72%.

Take `Cc1c(Cl)cccc1-n1nnc(-c2nc(-c3ccc4c(c3)OCO4)no2)c1C`: the survival is inactive: 73%. For `COc1ccc(C)cc1NS(=O)(=O)c1cc(Br)cc2c1N(C(C)=O)C(C)C2` (stereo not drawn), the survival was inactive: 56%. Regarding `Cc1c(C(=O)N(Cc2cccc(Cl)c2)Cc2ccco2)oc2ccccc12`, the survival is active: 40%.

With `C=CCN(C)NC(=S)Nc1ccccc1`, the survival was inactive: 98%. For `O=C(Cn1cc(SCc2ccc(Cl)cc2)c2ccccc21)N1CCCC1`, the survival was inactive: 83%. As for `CC(=O)Nc1ccc(NC(=O)CN2C(=O)CCc3cc(S(=O)(=O)N4CCCCC4)ccc32)cc1`, the figure is inactive: 89%; as for `O=C(Nc1ccc(F)cc1)Nc1nnc(SCC(=O)N2CCCCC2)s1`, inactive: 80%; as for `Cc1cccc(CNC(=O)CN2CC(C)Sc3ccccc32)c1` (stereo not drawn), inactive: 94%. Regarding `COc1cccc(NC(=O)c2ccc3c(=O)n4nc(Nc5ccccc5OC)sc4nc3c2)c1`, the survival was inactive: 67%. In the case of `COc1ccc(CNC(=O)c2ccc(CNS(=O)(=O)c3ccc(OC)cc3)cc2)cc1` it was inactive: 84%. `COCCCNC(=O)c1ccc(Cn2c(=O)c3ccccc3n(Cc3ccc(C)cc3)c2=O)cc1`: the survival is inactive: 67%. In the case of `CCOC(=O)c1ccc(NC(=O)CC2Nc3cc(C)c(C)cc3NC2=O)cc1` (stereo not drawn), the survival was inactive: 75%. As for `CC(C)C(=O)Nc1cccc(C(=O)Nc2nncs2)c1`, the figure is inactive: 87%; as for `COC(=O)c1sccc1S(=O)(=O)N(CC(=O)Nc1cc(C)cc(C)c1)c1ccc(Cl)cc1`, inactive: 88%. In the case of `COc1ccc(-n2c(SCC(=O)NCc3ccccc3)nc3ccsc3c2=O)cc1` it was inactive: 88%; in that of `COc1ccc(CNC(=O)CN2C(=O)COc3ccc(S(=O)(=O)N4CCCCCC4)cc32)cc1`, inactive: 79%.

On to `COc1ccc(NC(=O)c2nn(C)c3c2CSc2ccc(C)cc2-3)cc1OC`, for which the survival is inactive: 72%. In the case of `Cc1ccc(C2Nc3ccccc3-n3c(-c4ccccc4)c4c(=O)n(C)c(=O)n(C)c4c32)cc1` (stereo not drawn) it was active: 41%; in that of `Cc1ccc2c(c1)-c1c(cnn1CC(=O)N1CCN(c3cccc(C(F)(F)F)c3)CC1)CO2`, inactive: 50%; in that of `CC(=O)N1CCCc2cc(S(=O)(=O)N3CCCC(C(=O)N4CCN(c5ccccc5F)CC4)C3)ccc21` (stereo not drawn), inactive: 83%. As for `CCc1cccc(C)c1NS(=O)(=O)c1ccc2c(c1)NC(=O)C(C)C(=O)N2` (stereo not drawn), the figure is inactive: 79%; as for `CCOc1ccc(-n2c(=O)c3c4c(sc3n(CC(=O)NCCCOC)c2=O)CCCCC4)cc1`, inactive: 119%; as for `O=C(c1nn2c(c1Cl)NC(c1cccs1)CC2C(F)(F)F)N1CCOCC1` (stereo not drawn), inactive: 77%.

Regarding `Cc1nc(SCC(=O)OC(C)(C)C)c2c3c(sc2n1)CCCC3`, the survival is active: 7%.

As for `COc1ccc(C(=O)COC(=O)CCCC(=O)Nc2ccc(C(C)=O)cc2)cc1`, the survival is inactive: 73%.

Turning to `CCOc1ccc(-n2nc(CO)c(C(=O)NCC(c3ccccc3)c3ccccc3)n2)cc1`, the survival was inactive: 48%. As for `Cc1nc2cccnc2n1C1CCN(C(=O)Nc2ccccc2C(F)(F)F)CC1`, the figure is inactive: 96%; as for `CNS(=O)(=O)c1cn(CC(=O)N2CCN(c3ccc(Cl)cc3)CC2)cc1S(=O)(=O)NC`, inactive: 106%; as for `COc1cc(C)nc(Oc2ccc(OCCOc3ccccc3)nn2)n1`, inactive: 95%. As for `O=C(NCc1ccccc1)c1cccc(N2CCCS2(=O)=O)c1`, the figure is inactive: 99%; as for `COc1ccc(-c2cn3nc(N4CCCC(C(=O)Nc5cc(Cl)ccc5OC)C4)sc3n2)cc1` (stereo not drawn), inactive: 80%; as for `Cc1ccc(CNC(=O)c2c(-c3ccc(F)cc3F)noc2C)o1`, inactive: 77%.

For the compound `Cc1cc(C)c(NC(=O)Cn2nnc(C(=O)NCc3cccs3)c2N)c(C)c1`, the survival was inactive: 91%.

Regarding `COc1ccc(CC(=O)NCC(c2ccc(N(C)C)cc2)N2CCOCC2)cc1OC` (stereo not drawn), the survival is inactive: 92%. In the case of `Cc1ccccc1OCc1ccc(-c2nc(C#N)c(N3CCCCC3)o2)o1` it was inactive: 99%. As for `COc1cc(NC(=O)Cn2c(=O)n(-c3ccccc3)c(=O)c3c4c(sc32)CCCC4)cc(OC)c1`, the figure is inactive: 105%; as for `CCCCNC(=O)c1cnn2c(C)c(Cc3c(C)cc(C)cc3C)c(C)nc12`, inactive: 102%; as for `CC(C)COc1ccc(C(=O)Nc2scc(-c3ccc(Br)cc3)c2C(=O)OC(C)C)cc1`, inactive: 53%.

As for `CCOC(=O)c1cc2c(=O)n3ccccc3nc2n(Cc2ccco2)c1=NC(=O)c1ccc(OC)cc1`, the survival is active: 34%. As for `Cc1cccc(OCC(=O)Nc2cccc(C(=O)OCc3cc(=O)n4c(C)csc4n3)c2)c1`, the figure is active: -5%; as for `O=C(CSc1nccn1Cc1ccc(F)cc1)NCc1ccccc1`, inactive: 90%. As for `COc1ccc(S(=O)(=O)N(CC(=O)NCCSc2ccccc2)c2ccc(Cl)cc2)cc1`, the figure is inactive: 56%. In the case of `CCc1cccc(N2C(=O)CSC23C(=O)N(Cc2ccccc2F)c2ccccc23)c1` (stereo not drawn) it was inactive: 71%. For the compound `COc1ccc(-n2ncc(C(=O)NCc3ccc4c(c3)OCO4)c2C2CCN(C(=O)OC(C)(C)C)CC2)cc1`, the survival was inactive: 115%.

`CCCCn1c(SCC(=O)NC(C)(C)C)nnc1-c1ccncc1`: the survival is inactive: 72%. In the case of `CC(N)c1ccc2c(c1)OCCO2` (stereo not drawn) it was inactive: 98%. In the case of `COc1ccc(-c2cn3nc(SCC(=O)Nc4ccccc4F)ccc3n2)cc1` it was inactive: 98%; in that of `Cc1cc(C)c(NC(=O)COCc2cc(-c3cccs3)on2)c(C)c1`, inactive: 83%. As for `COC(=O)c1scc(-c2ccc(C)cc2)c1S(=O)(=O)Nc1ccc(NC(C)=O)cc1`, the figure is inactive: 128%. As to `COc1ccc2c(c1)NC(c1ccc(F)cc1)=NC(c1ccc(F)cc1)=N2`, the survival was inactive: 97%. Turning to `CCCNC(=O)C1CCN(S(C)(=O)=O)CC1`, the survival was inactive: 102%. In the case of `CCOC(=O)c1cccc(NS(=O)(=O)c2cc(Br)cc3c2N(C(=O)C2CC2)CC3)c1` it was inactive: 115%.

For the compound `Cc1ccc(/C=C/c2onc(C)c2S(=O)(=O)N2CCC(C(=O)NCc3ccco3)CC2)cc1`, the survival is inactive: 74%.

Turning to `CCN(CC)c1ccc(NC(=O)CN2C(=O)c3cccnc3Oc3ccccc32)c(C)c1`, the survival is inactive: 116%. In the case of `Cc1cc(C)cc(NS(=O)(=O)c2ccc(-c3cc(C)no3)cc2)c1`, the survival is inactive: 55%. As for `Cc1ccc(CCNC(=O)c2ccc3c(c2)N(Cc2cc(C)ccc2C)C(=O)c2ccccc2S3=O)cc1` (stereo not drawn), the figure is inactive: 56%; as for `CCCCC(=O)Nc1ccc(NC(=O)C2CC2)nc1`, inactive: 75%.

For the compound `CCCCN(Cc1ccccc1)S(=O)(=O)c1ccc2c(c1)CCN2C(=O)C1CCC1`, the survival was inactive: 86%.

In the case of `CCCSCCCNC(=O)C1CCCN(C(=O)c2cnn(-c3ccccc3)c2-n2cccc2)C1` (stereo not drawn), the survival is inactive: 91%. Consider `O=C(Cn1nc(Cc2cccnc2)c2ccccc2c1=O)N1CCN(c2ccc(F)cc2)CC1`, for which the survival is inactive: 79%. `COC(=O)c1ccc(OCC2c3cc(OC)c(OC)cc3CCN2C(=O)c2cccc(C)c2)cc1` (stereo not drawn): the survival is inactive: 94%. In the case of `COc1ccc(NC(=O)C2CCN(C3=NS(=O)(=O)C(c4ccc(C)c(C)c4)=C3C)CC2)cc1OC` it was inactive: 82%; in that of `COc1cccc(N2CCN(C(=O)CN3CCSc4ccc(S(=O)(=O)N(C)C)cc43)CC2)c1`, inactive: 87%; in that of `CCn1nnnc1SCC(=O)c1ccc(NC(C)=O)cc1`, inactive: 86%.

For `COc1ccc(CNC(=O)CCS(=O)(=O)c2cc(Br)cc3c2N(C(=O)C2CC2)CC3)cc1`, the survival was inactive: 90%. In the case of `Cc1cc(C)c(NC(=O)CN2C(=O)c3cccnc3Oc3ccc(Cl)cc32)c(C)c1` it was inactive: 95%; in that of `O=C(Cc1ccc(Cl)cc1)NCCN1CCOCC1`, inactive: 91%.

As to `Cc1cc(Nc2ccc(C)c(Cl)c2)n2nc(-c3ccccc3)nc2n1`, the survival was inactive: 57%. In the case of `Cc1ccc(C(=O)N2c3nc(-c4ccco4)nn3C3(CCCCC3)[C@@H]3CCCC[C@@H]32)cc1` it was active: 59%; in that of `NC(=O)CCN1CCOCC1`, inactive: 100%. In the case of `CC1CCN(S(=O)(=O)c2cccc(C(=O)NC3CCS(=O)(=O)C3)c2)CC1` (stereo not drawn) it was inactive: 81%; in that of `CCN(C(=O)C(NS(=O)(=O)c1cccc2nsnc12)c1ccccc1)c1ccccc1` (stereo not drawn), inactive: 123%.

With `COc1ccc(-c2ccnc3c2c(=O)n(C)c(=O)n3C)cc1OC`, the survival is inactive: 78%. In the case of `COCCCNC(=O)CCCN1C(=O)CCn2nc(-c3cn(C)c4ccccc34)cc21` it was inactive: 94%; in that of `Cc1ccc(C)c(N2CCN(CCCNc3ncnc4onc(-c5ccc(Cl)cc5)c34)CC2)c1`, inactive: 73%; in that of `Cc1ccc(NC(=O)[C@H](CSCc2ccccc2)N2Cc3ccccc3C2=O)cc1`, inactive: 73%.

With `COc1ccc(OC)c(CNC(=O)CCS(=O)(=O)c2ccc3c(c2)oc(=O)n3C)c1`, the survival is inactive: 83%.
